Data: paper PMC4336329 (PLoS ONE, 2015)
Hit rate of the full screen: of about 310,000 compounds, about 2,200 (0.71%) showed an effect of 50% or more. Effects have a minus sign here. This is one part of the list.

biological target: human ether-à-go-go-related gene (hERG) potassium channel (human, UniProt Q12809); test: primary screen, population patch clamp on CHO cells stably expressing hERG
Sequence (Q12809 whole entry, looked up): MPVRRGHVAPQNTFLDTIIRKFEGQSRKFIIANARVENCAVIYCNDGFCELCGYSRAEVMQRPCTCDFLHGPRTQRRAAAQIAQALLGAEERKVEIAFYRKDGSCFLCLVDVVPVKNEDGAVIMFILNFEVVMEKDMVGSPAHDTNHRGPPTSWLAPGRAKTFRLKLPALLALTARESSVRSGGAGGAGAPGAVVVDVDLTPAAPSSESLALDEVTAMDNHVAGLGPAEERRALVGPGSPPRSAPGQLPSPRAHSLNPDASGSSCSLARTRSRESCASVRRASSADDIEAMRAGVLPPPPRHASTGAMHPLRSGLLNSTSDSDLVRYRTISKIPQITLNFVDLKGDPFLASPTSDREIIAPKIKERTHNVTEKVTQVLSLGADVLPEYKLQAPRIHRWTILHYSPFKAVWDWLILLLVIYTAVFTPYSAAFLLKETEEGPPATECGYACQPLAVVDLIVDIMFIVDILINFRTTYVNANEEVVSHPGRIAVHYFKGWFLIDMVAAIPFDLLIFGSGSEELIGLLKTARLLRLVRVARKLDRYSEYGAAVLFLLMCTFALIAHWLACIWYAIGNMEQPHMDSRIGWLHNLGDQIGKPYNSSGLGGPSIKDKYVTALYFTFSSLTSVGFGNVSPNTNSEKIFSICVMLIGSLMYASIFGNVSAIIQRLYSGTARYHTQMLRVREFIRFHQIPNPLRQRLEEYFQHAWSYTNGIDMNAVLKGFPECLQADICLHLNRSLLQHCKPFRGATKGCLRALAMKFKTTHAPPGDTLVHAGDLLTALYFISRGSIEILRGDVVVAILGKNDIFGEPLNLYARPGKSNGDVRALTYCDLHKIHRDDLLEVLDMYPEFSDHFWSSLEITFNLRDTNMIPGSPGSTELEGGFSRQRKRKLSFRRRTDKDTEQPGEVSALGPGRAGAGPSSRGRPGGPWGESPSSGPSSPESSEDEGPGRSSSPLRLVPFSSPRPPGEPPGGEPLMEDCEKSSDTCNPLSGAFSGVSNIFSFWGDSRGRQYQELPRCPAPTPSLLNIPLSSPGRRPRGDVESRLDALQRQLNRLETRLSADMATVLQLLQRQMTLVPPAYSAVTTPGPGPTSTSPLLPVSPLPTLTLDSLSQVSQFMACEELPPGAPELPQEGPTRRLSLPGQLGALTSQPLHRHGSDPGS

Row | SMILES | hERG current change (%, negative = inhibition) at 1uM
1 | Cn1c(Cn2nnc3ccccc32)nnc1SCC(N)=O | 15.9%
2 | Cc1n[nH]c(=O)c2c(NC(=O)COC(=O)c3cccc(OC(F)F)c3)oc(C)c12 | -2.63%
3 | CCOC(=O)CCSc1nc2c(c(C(F)(F)F)c1C#N)CCC2 | 12.6%
4 | Cc1c(NC(=O)CN2C(=O)NC(C)(c3ccc4c(c3)OCCO4)C2=O)c(=O)n(-c2ccccc2)n1C (stereo not shown) | 19.6%
5 | CC1CCCCC1NC(=O)CSc1nncs1 (stereo not shown) | 14.5%
6 | CCNS(=O)(=O)c1ccc(CCC(=O)Nc2ccccc2)cc1 | 7.45%
7 | COC(=O)[C@@H](Cc1ccccc1)NC(=O)NCCc1ccccc1 | 13.7%
8 | O=C(Nc1ccc(F)cc1)c1cccnc1N1CCOCC1 | 17.9%
9 | N#Cc1c(N)c(C(=O)c2ccc(Cl)cc2)n2c1CCC2 | 14.2%
10 | CS(=O)(=O)c1ccc2nc(NC(=O)c3ccco3)sc2c1 | 8.63%
11 | COc1ccc(CN2C(=O)NC3(CCCC3)C2=O)cc1F | 0.331%
12 | C=CCC(=O)OCCCCCCOc1ccc(C(=O)O)cc1 | -5.04%
13 | CCn1c(SCC(=O)N2CCCCC2C)nc2c1c(=O)n(C)c(=O)n2C (stereo not shown) | 11.2%
14 | CCN(CC(=O)NCC1CCCO1)S(=O)(=O)c1ccc(Cl)cc1 (stereo not shown) | 10%
15 | CC1CN(C(=O)c2ccc(COCC(F)(F)F)o2)CC(C)O1 (stereo not shown) | 14.1%
16 | Cc1oc(-c2cccc(Cl)c2)nc1CS(=O)(=O)CC(=O)NC1CC1 | 5.45%
17 | CCN(CC(=O)Nc1c(F)cccc1F)C(=O)Cc1ccc(OC)c(S(=O)(=O)N2CCOCC2)c1 | 15.5%
18 | O=C(O)c1ccccc1C(=O)c1cccc2ccccc12 | 13.6%
19 | O=C(Cc1sc(-c2ccccc2)nc1-c1ccccc1)Nc1ccccc1 | 12.9%
20 | COC(=O)c1sc2nc(-c3ccco3)ccc2c1N | 3.04%
21 | O=C(/C=C/Nc1cccc(C(F)(F)F)c1)c1ccc(Oc2ncccn2)cc1 | 18.9%
22 | O=C(Nc1ccc(Cl)cn1)c1ccc(-c2ccc(Cl)c(Cl)c2)o1 | 11.8%

Row | SMILES | hERG current change (%, negative = inhibition) at 1uM
23 | COc1ccc(S(=O)(=O)N(C)CC(=O)N2CCC(C(N)=O)CC2)cc1 | 9.98%
24 | CCOc1cc(C2C(C#N)=C(N)Oc3n[nH]c(-c4ccccc4)c32)ccc1O (stereo not shown) | 5.4%
25 | Cc1cccc(OCCCn2c(CCNC(=O)C(C)C)nc3ccccc32)c1 | -5.07%
26 | CNC(=O)Nc1cccc2cccnc12 | 3.5%
27 | CCC(C)N=Cc1c(NCc2ccco2)nc2c(C)cccn2c1=O (stereo not shown) | 8.53%
28 | O=[N+]([O-])c1cc(C(F)(F)F)ccc1Sc1nccn1Cc1ccccc1 | 3.73%
29 | Cc1ccc(C)c(N(C(=O)Cn2nnc3ccccc32)C(C(=O)NCc2ccco2)c2ccncc2)c1 (stereo not shown) | 2.36%
30 | O=C1c2ccccc2-c2c1cccc2C(=O)N(CCO)CCO | 8.69%
31 | COC(=O)c1ccc(-c2ccc([C@H]3[C@H]4C=CC[C@@H](C)[C@@H]4C(=O)N3Cc3ccccc3)c(F)c2)cc1 | 17%
32 | CC(=O)c1ccccc1OC(=O)c1ccc([N+](=O)[O-])o1 | 20.1%
33 | CCn1nnnc1SCC(=O)N1CCN(c2ccccc2)CC1 | -3.52%
34 | COc1ccc(-c2cc(=O)oc3cc(OCC(=O)NCCCn4ccnc4)ccc23)cc1 | -12.8%
35 | Fc1cccc(Nc2ncnc3[nH]ncc23)c1 | 14.9%
36 | COCCCNC(=O)Nc1ccc(F)cc1F | 10%
37 | CC(=O)O[C@@]12CO[C@@H]1C[C@@H](O)[C@@]1(C)C(=O)[C@H](O)C3=C(C)[C@@H](OC(=O)[C@H](O)[C@@H](NC(=O)c4ccccc4)c4ccccc4)C[C@@](O)([C@@H](OC(=O)c4ccccc4)C12)C3(C)C (stereo partly shown) | 13.6%
38 | CC(C)c1ccc(NC(=O)COc2nncc3ccccc23)cc1 | 10.2%
39 | Cc1ccc(NC(=O)NCC2CCN(Cc3cc(C)ccc3Cl)CC2)c(C)c1 | -27.3%
40 | COc1ccc(S(=O)(=O)N(CC(=O)NCc2ccco2)c2ccc(F)cc2)cc1 | 6.13%
41 | CC(=O)c1ccc(NC(=O)Oc2ccccc2)cc1 | 0.966%
42 | Cc1ccc(SCc2cc(=O)n3[nH]c(C)nc3n2)cc1 | 11.3%
43 | O=C(COc1ccc(Cl)cc1Cl)Nc1ccc(-c2ccc(N3CCOCC3)nn2)cc1 | 14.5%
